The source holds more than one record for some entries. This list holds those alone. An entry can have further records. Values that stand side by side repeat one measurement (runs, samples, wells, individuals or studies). Marks such as (2×) give the number of equal values in this list. Marks such as [2022-09] give the month of the run.
Tested on: 966289-007-R4-J1-PDC complex spheroid viability
Experiment: Anticancer human tumor 966289-007-R4-J1-PDC patient-derived pancreatic adenocarcinoma cell line growth inhibition [RAS]
Settings: for viability, T/C: stronger effect = lower value
Text: RAS pathway inhibitors in Combinations in Complex Spheroids
A high-throughput screen of multi-cell type tumor spheroids was designed to identify active combinations of RAS pathway inhibitors and targeted small molecules. Complex spheroids include a stromal component modeled by human endothelial cells (HUVEC) and fibroblasts modeled by human mesenchymal stem cells (MSCs). The concentration ranges selected for each drug and investigational agent were based upon clinically achievable concentrations if the clinical Cmax of the agent was known.
Compounds. The drugs and investigational agents: abemaciclib (NSC768073), cobimetinib (NSC768068), divarasib (GDC6063, NSC841802), docetaxel (NSC628503), GDC-1971 (RLY-1971, NSC841576), gemcitabine (NSC613327), inavolisib (NSC800729), ipatasertib (NSC767898), KB-0742 (NSC834161), MRTX-1133 (NSC836407), osimertinib (NSC779217), RMC-4630 (NSC839698), RMC-6236 (NSC851965), RMC-6291 (NSC852671), Ro-3306 (NSC812927), sapanisertib (NSC764658), SN-38 (NSC673596), staurosporine (NSC755774), SY5609 (NSC837396), and tovorafenib (DAY101, NSC766906), were obtained from the National Cancer Institute (NCI) Developmental Therapeutics Program Chemical Repository. The FDA-approved anticancer drug set is available from the NCI Developmental Therapeutics Program. […] The stock solutions were prepared in dimethyl sulfoxide (DMSO, Sigma-Aldrich, St. Louis, MO, cat. D2650) at 800-fold the tested concentration and stored at -70 degrees C prior to their use. All drugs and investigational agents were tested over a range starting from a high concentration at or near the clinical Cmax and decreasing in half-log increments. If the clinical Cmax for an agent had not been determined, the highest concentration tested was 10 microM.
Cell Culture. All cells were maintained in an incubator at 37 degrees C and 5% CO2 with 95% humidity. The PDC lines were cultured according to standard operating procedures established by the NCI PDMR. All PDCs were thawed and cultured in Matrigel-coated flasks prepared with a working solution of 1X Ham's F-12 nutrient mix, without supplementation (Invitrogen, Waltham, MA, cat. 11765054), 100 U/mL penicillin-streptomycin (Invitrogen, cat. 15140122), and 2.5% Matrigel (Corning Inc., Corning, NY, cat. 354248) for the first three passages. The 362531-283-R-J2-PDC and 782815-120-R-J1-PDC lines were cultured in 6C/Colon 1B media, which includes advanced DMEM/F-12 (Thermo Fisher Scientific, cat. 12634028), 10 mM HEPES (Thermo Fisher Scientific, cat. 15630080), 1X GlutaMAX supplement (Thermo Fisher Scientific, cat. 35050061), 0.1 mg/mL primocin (InvivoGen, San Diego, CA, cat. ant-pm-2), 10% defined fetal bovine serum, heat inactivated (HyClone Laboratories Inc., Logan, UT, cat. SH30070.03HI), 50% L-WRN conditioned media (ATCC, cat. CRL-3276), 1.25 mM N-Acetyl-L-cysteine (Sigma-Aldrich, cat. A9165), 10 mM nicotinamide (Sigma-Aldrich, cat. N0636), 1X B-27 supplement (Thermo Fisher Scientific, cat. 17504044), 1X N-2 supplement (Thermo Fisher Scientific, cat. 17502048), 50 ng/mL human EGF (Thermo Fisher Scientific, cat. PHG0311), and 10 microM Y-27632 dihydrochloride (Tocris Bioscience, cat. 1254). The K12877-001-R-J1-PDC line was cultured in 6I media, which includes all 6C/Colon 1B media plus 10 ng/mL human FGF-10 (PeproTech, cat. 100-26), 1 ng/mL human FGF-2 (PeproTech, cat. 100-18B), 1 µM prostaglandin E2 (Tocris Bioscience, cat. 2296), […] hydrocortisone (Sigma-Aldrich, cat. H4001), and […] bovine insulin (Sigma-Aldrich, cat. I6634). The K86415-001-R-J1-PDC line was cultured in 6D media, which includes all 6C/Colon 1B media components minus the L-WRN conditioned media. The 485176-168-R4-J1-PDC was cultured in PANC media, which includes all 6C/Colon 1B media plus 100 ng/mL human FGF-10 (PeproTech, cat. 100-26), 500 nM SB-431542 (Selleckchem, cat. S1067), and 10 nM gastrin (Tocris Bioscience, cat. 3006). […]
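Note: spheroids exposed to agents for one week before readout.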
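Throughout, for viability, T/C: percent viability relative to DMSO vehicle control wells as 100%.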

| Compound | viability, T/C (compound alone 0.003 µM) | viability, T/C (compound alone 0.00949 µM) | viability, T/C (compound alone 0.03 µM) | viability, T/C (compound alone 0.3 µM) | viability, T/C (compound alone 0.1 µM) | viability, T/C (compound alone 3.16 µM) | viability, T/C (compound alone 0.000949 µM) | also measured |
| --- | --- | --- | --- | --- | --- | --- | --- | --- |
| CCn1c(-c2cc(N3CCN(C)CC3)cnc2C(C)OC)c2c3cc(ccc31)-c1csc(n1)CC(NC(=O)C1CC1C)C(=O)N1CCCC(N1)C(=O)OCC(C)(C)C2 (stereo not given) | 115, 102, 110, 107, 109, 125, 131, 96.5% | 111 (2×), 91, 118, 121, 107, 102, 108% | 116, 95.8, 107 (2×), 83.3, 94.4, 103, 112% | 119, 84.7 (2×), 84.4, 73.7, 81.8, 80.2, 80.1% | – | – | – | viability, T/C (compound alone 0.0949 µM): 97.6, 113, 103, 92.8, 86.9, 90.8, 95.5, 93.1% |
| Cc1nc(N2CCC3(CC2)COC(C)C3N)c(CO)nc1Sc1ccnc(N)c1Cl (stereo not given) | – | – | – | – | 62.1%, 73.4% [2024-05] and 99.8%, 111% [2024-06] | 60.8%, 87.8% [2024-05] and 94.2%, 90.9% [2024-06] | – | viability, T/C (compound alone 0.0316 µM): 78.7%, 99% [2024-05] and 100%, 105% [2024-06] |
| CC(C)n1nc(-c2ccc3oc(N)nc3c2)c2c(N)ncnc21 | – | – | – | – | – | – | – | viability, T/C (compound alone 0.000316 µM): 103%, 77.8% [2024-05] and 107%, 86.6% [2024-06]; viability, T/C (compound alone 0.001 µM): 86.5%, 74.3% [2024-05] and 90.3%, 101% [2024-06]; viability, T/C (compound alone 0.00316 µM): 106%, 145% [2024-05] and 121%, 108% [2024-06]; viability, T/C (compound alone 0.01 µM): 73.5%, 93.7% [2024-05] and 92.9%, 111% [2024-06] |
| CC1(C)CCC(Nc2ncc(C(F)(F)F)c(-c3c[nH]c4c(P(C)(C)=O)c(C#N)ccc34)n2)CN1 (stereo not given) | 75.8%, 105% [2024-05] and 124%, 117% [2024-06] | 22.7%, 34.4% [2024-05] and 80.6%, 64.4% [2024-06] | – | – | – | – | 131%, 110% [2024-05] and 102%, 104% [2024-06] | IC50 (compound alone): 5.25 nM, 7.37 nM [2024-05] and 16.2 nM, 13 nM [2024-06] |
| C[C@@H](NC(=O)c1ncnc(N)c1Cl)c1ncc(C(=O)Nc2cc(C(F)(F)F)c(Cl)cn2)s1 | – | – | – | – | 69.5%, 74.7% [2024-05] and 116%, 117% [2024-06] | 61.4%, 59.9% [2024-05] and 119%, 120% [2024-06] | – | viability, T/C (compound alone 0.316 µM): 105%, 116% [2024-05] and 115%, 132% [2024-06]; viability, T/C (compound alone 1 µM): 62.7%, 98% [2024-05] and 113%, 129% [2024-06] |
| CCn1c(-c2cccnc2C(C)OC)c2c3cc(ccc31)N1CCOC(CC(NC(=O)C(C(C)C)N(C)C(=O)C3(F)CCN(C(=O)C#CC(C)(C)N(C)C)CC3)C(=O)N3CCCC(N3)C(=O)OCC(C)(C)C2)C1 (stereo not given) | 112, 89, 106, 118, 95.1, 107 (2×), 115% | 109, 84, 113, 85.8, 112, 106, 102, 100% | 111, 99.4, 92.6, 96, 109, 99.9, 118, 101% | 78.2, 94.9, 64.8, 72.4, 75.4, 70.8, 70, 65% | – | – | 85.3, 94.3, 116, 93.4, 81.4, 101, 99.3, 92.8% | – |

Source: PubChem BioAssay AID2060897 (Molecular Pharmacology Branch, DTP, NCI, 2025)
